Assay results published in the RNAGym collection of RNA variant scans (doi:10.1073/pnas.2313332121).
Variants at the background level are over-represented here.

B1: TPR 5TU (parent)
chain: GGAUCUUCUCGAUCUAACAAAAAAGACAAAUCUGCCACAAAGCUUGAGAGCAUCUUCGGAUGCAGAGGCGGCAGCCUUCGGUGGCGCGAUAGCGCCAACGUUCUCAACUAUGACACGCAAAACGCGUGCUCCGUUGAAUGGAGUUUAUCAUG

Variants of: B1
Experiment: polymerase ribozyme fitness, log enrichment relative to wild type (log ratio); higher = more active; in vitro selection for triplet polymerase activity
Procedure, shortened: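 Only genotypes with ≥10 input reads and ≥1 read per output were kept after Illumina sequencing of input and output libraries. These libraries were PCR-built, transcribed mutants of each subunit of a heterodimeric triplet polymerase ribozyme, each put through one triplicate in vitro selection round with frozen incubation at −7 °C, gel excision of extended constructs, streptavidin-bead capture and RT-PCR. Fitness is a logarithmic ratio of genotype enrichment to wild-type enrichment, from inverse-variance-weighted replicate averages, with the logarithm in base 2.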

Variant	polymerase ribozyme fitness (log ratio)
A24U A37U U82G	-0.974
A24C C123A	≤ -4.2
A24U A28G C36U G62A U78G G83A A91G G128C	-3.66
A24U C27A C38G C79A G83U	≤ -4.2
A23U U55A G84U G94C C95A	≤ -4.2
G25U A29G C51U G67A C87G G112U G141C U148A	≤ -4.2
A24G G70C	≤ -4.2
G25C C57A C87U A97G	-3.23
A26C C27U U53A G59A C95U A97U C118G C131U C132A	≤ -4.2
A24U G81U G88A G94C	≤ -4.2
G25U A26C A49G U61A C76U U104A C114U A119C	≤ -4.2
A24U A26U G84A A119G G141U U144G	≤ -4.2
A24U G80C	-4.14
A24G A73G G86A G141U U145A A150U	≤ -4.2
A24C A49C G84A A97C U130G A137U	≤ -4.2
A24G C27A U77G C114G A119G U127G	≤ -4.2
A24U G86U A107C A138C A142U	≤ -4.2
A24G U31A C51U U148G	≤ -4.2
A24C C32G A37C G58A G59C A60C C85U C87G C116U A138G	≤ -4.2
G25A A26G A40G A47C C85A C116G A119C	≤ -4.2
A24G U56A G65C C85U G143U	≤ -4.2

Variant	polymerase ribozyme fitness (log ratio)
G25C C35U G74C C75A U148G	≤ -4.2
A24U U53A A66G C93G U101C A119U	≤ -4.2
A24G U61G C85A U101C A106U C116G	≤ -4.2
G25U A49C G68U G84A C87G A89U G94C C114A U148G	≤ -4.2
A24U U33C C36U C72G C87A A106U A121G C125U	≤ -4.2
A24G U31C G88A	≤ -4.2
A26C A41U G81C G88A C116U U135C	≤ -4.2
A24C C35U G62C C95U C96A	≤ -4.2
G25C U44C G59A G84U C93G C103G	≤ -4.2
A26C C32A C57G C75A	≤ -4.2
G25U U44G U45A U56A G80A C85U A97U	≤ -4.2
A24G U55A G80A G94A	≤ -4.2
A26C G92C	-2.71
A26C G92A	≤ -4.2
G25C A37G C95U A107G	≤ -4.2
A24G U33G G71A C87G C93G C96A A98G A137G	≤ -4.2
A24C C43U U55A G59A C93A G117U U135C G136C	≤ -4.2
A24C A41C G84U G88A G94C A110G	≤ -4.2
A23U U90C C93U U102G A119U G124A G133U U134C	≤ -4.2
A24C G34A C87A G126U	-4.18
A24C C72A C103A U109G G126U	≤ -4.2

Variant	polymerase ribozyme fitness (log ratio)
A26C C93G C114U	-4.19
A24U G133C G141C	≤ -4.2
A24C C32A C76U G83A G94C A107U A138G G140A	≤ -4.2
G25C C51A U55A C93U G136A	≤ -4.2
G25U A29G	≤ -4.2
G25U C32U C36A C85U C114U C129U U134C	≤ -4.2
G25U G86U A98C C99U A121G	≤ -4.2
A23U U55A U77C C85A C96A	≤ -4.2
A24U A29C C36A A47U G80A C93A C103A	≤ -4.2
G25C C57U C123A C125G	-2.33
G25A A26U A28C A41C A60G C76A A91U C108U	≤ -4.2
G25U U45G U90C C95A A97C	≤ -4.2
A23U U148C	-4.13
A24U G84A C93G	≤ -4.2
A24U G42A G50C C72G C96G U127G	≤ -4.2
G25U A28C G48C U56A G68C G83U G140U	≤ -4.2
A24U G58A A66U C87A U90G U146C	≤ -4.2
A24U C32G C85G	≤ -4.2
A26C G92C U104C C108U A115C	≤ -4.2
A24U A47G G62U C79G A91G	≤ -4.2
A24G C38G G42C A66G C93A A138C	≤ -4.2

Variant	polymerase ribozyme fitness (log ratio)
A26C C32G C57G	≤ -4.2
G25A U55G U56A U61C C87U A97G C99U	≤ -4.2
A24U A26U C54U G84U U127A	≤ -4.2
A24U U55G U61A C123U G133C	≤ -4.2
G25U G81C C93U U135A	≤ -4.2
G25U C54G U82G G92U U148A	≤ -4.2
A26C C85U G94A A115U G141A U144C	≤ -4.2
G25C C27G C32U A40C U55A C57A G88U C96U G141A	≤ -4.2
A24U C38U	0.361
A24U C35A A52U G84A G136A	≤ -4.2
G25C A91U G100U U109C C118G A138G G141C	≤ -4.2
A24C A28C A30G G42A G59A A107U G112C C116U A147G	≤ -4.2
A24C C54U C87U A150C	≤ -4.2
A24G C35U G48U A52U C125A	≤ -4.2
A23U U45C A66G C85U	≤ -4.2
G25U C85U C116G A120U G141C	≤ -4.2
G25U A49U G67C C95A A119U A150U	≤ -4.2
A23U G71C C87U U90G G100A	≤ -4.2
G25U U33A C76U C93G U104G C105U U146A	≤ -4.2
A24G A39U G88C C132A G140C	≤ -4.2
